B1: LINE1-full (parent)
chain: UACGUAGGUGGUUUUCCCCUGAUAGUGCUAAGGGGGCCUGGAAGUUUGGACUGGGCAGAGCUCAACACAGCGUGGCAAAGUGGCUGUGGCUAGACUGCCUCUCUGGAUUCCUCGUCACUCAGCAGGGCAUCUCUGAGAGAAAUGCC

The source gives no read counts; variants with many changes may rest on few reads.

Consider 20 variants from the RNAGym collection of RNA variant scans (doi:10.7554/elife.90254).

Variants of B1 are the subject of the data set. Nature of the data set: self-cleavage, relative activity (ratio to wild type); higher = more cleavage; in vitro, sequencing; the parent is a self-cleaving ribozyme.
Regarding UACGUAGGUGGUUUUCCCCUGAUAGCGCUAAGGGGGCCUGGAAGUUUGGUCUUGGCAGGGCUCAGCACAGCGUGGCAAAGUGGCUGUGGCUAGACUGCCUCUCUGGGUUCCUCGUCACUCAGCAGGGCAUCUCUGAGAGAAAUGCC [U26C A50U G53U A59G A65G A107G], the self-cleavage was determined as 0.

Regarding UACGUAGGUGGUUUUCCCCUGAUAGUGCUAAGGGGGCCUGGAAGCUUGGACUGGGCAGAGCUCAACACAGAGUGGCAAAGUGGCUGUGGCUAGACUGCCUCUCUGGAUUCCUCGUCUCUCAGCAGGGCAUCUCUGAGAGAAAUGCC [U45C C71A A117U], the self-cleavage worked out at 0.25.

Take UACGUAGGUGGUUUUCCCCUGAUAGUGCUAAGGGGGCCUGGAAGUUUGGACUGGGCAGAGCUCACCACAGCGUGGCAAAGUGGCUGUGGCUAGACCGCCUCUCUGGGUUCCUCGUCACUCAGCAGGGCAUCUCUGAGAGAAGUGCC [A65C U96C A107G A142G]: the self-cleavage came out at 0.

Consider UGCGUAGGUGGUUUUCCCCUGAUAGUGCUAAGGGGGCCUGGAAGUUUGGACUGGGCAGAGCUCAACACAGCGAGGCAAAGUGGCCGAGGCUAGACUGCCCCUCUGGAUUCCUCGUCACUCAGCAGGGCAUCUCUGGGAGGAAUGCC [A2G U73A U85C U87A U100C A136G A140G], for which the self-cleavage turned out to be 0.

UACGUAGGUGGUUUUCCCCUGAUAGUGCUAAGUGGGCCUGGAAGUUUGGUCUGGGCAGAGCUCAACACAGCGUGGCAAAGUGGCUGUGGCUAGACUGCCUCUCUGGAUUCCUCGUCACACAGCAGGGCAUCUCUGAGAGAAGUGCC [G33U A50U U119A A142G]: the self-cleavage was 1.19.

For UACGUAGGUGGUUUUCUCCUGAUAGUGCUAAGGGGGCCUGGAAGUUUGGACUGGGUAGAGCUCAACACAGCGUGGCAUAGUGGCUGUGGCUAGACUGCCUCUCUGGAUUCCUCGUCACUCAGCAGGGCAUCUCUGGGAGAAAUGCC [C17U C56U A78U A136G], the self-cleavage stood at 0.21.

As for UACGUAGGUGGUUUUCCCCUGACAGUGCUAAGGGGGCCCGGAAGCUUGGACUGGGCAGAGCUCAACACAGCGUGGCAAAGUGGCUGUGGCUAGACUGCCUCUCUGGAUUCCUCGUCACUCAGCAGGGCAUCCCUGAGAGAAAUGCC [U23C U39C U45C U132C], the self-cleavage came to 0.77.

Regarding UACGUAGGUGGUUUCCCCCUGAUAGUGCUAAGGGGGCCUGGAAGUUCGGACAGGGCAGAGCUCAACACAGCGUGGCAAGGUGGCUGUGGCUAGACUGCCUCUCUGGAUUCCUCGUCACUCAGCAGGGCAUCUCUGAGAGAAAUGCC [U15C U47C U52A A79G], the self-cleavage amounted to 1.67.

For the variant UACGUAGGUGGUUUACCCCUGAUAGUGCUAAGGGGGCCUGGAAGCUUGGACUGGGCAGGGUUCAACACAGCGUGGCAAAGUGGCUGUGGCUAGACUGCCUCUCUGGAUUCCUCGUCACUCAGCAGGGCAACACUGAGAGGAAUGCC [U15A U45C A59G C61U U130A U132A A140G], the self-cleavage stood at 0.08.

On to UACGUAGGUGGUCUUCCCCUGAUAGUGCUAAGGGGGACAGGAAGUUUGGACUGGGCAGAGCUCAACACAGCGUGGCAAAGUGGCUGUGGCUAGACUGCCUCUCUGGAUUCCUCGUCUCUCGGCAGGGCAUCUCUGAGAGAAAUGCC [U13C C37A U39A A117U A121G], for which the self-cleavage is 1.2.

With UACGUAGGUGGUUUUCCCCUGAUAGUGCUAAGGGGGCCUGGAAGUUUGGACUGGGCAGAGCUCAACACAGCGUGGCAAGGUGGCUGUGGCUAGACUGCCUCUCUGGAUUCCUCGUCACUCAGCACGGCAUCUCUGAGAGACAUGCC [A79G G125C A141C], the self-cleavage was found to be 1.58.

On to UACGUAGGUGGUUUUCCCCAGAUAGUGCUAAGGGGGCCUGGAAGUUUGGACUGGGCAGAGCUCAACACAGCGUGGCAAAGUGGCCGUGGCUAGACUGCCUCACUGGAUUCCUCGUCACUCAGCAGGGCAUCUCUGAGAGAAAUGCC [U20A U85C U102A], for which the self-cleavage turned out to be 0.19.

Regarding UACGAAGGUGGUUUUCCCCUGACAGUGCUAAGGGGGCCUGGAAGCUUGGACUGGGCAGAGCUCAGCACAGCGUGGCAAAGUGGCUGUGGCUAGACUGCCUCUCUGGAUUCCUCGUCACUCAGCAGGGCAUCUCUGAGAGAAAUGCC [U5A U23C U45C A65G], the self-cleavage worked out at 0.

For UACGUAGGUGGUUUUCCCCUGAUAGUGCUAAGGGGGCCUGGACGUUUGGACUGGGCAGUGCUCAACACAGCGUGGCAAAGUGGCUGUGGCUAGACUGCCUCUCUGGAUUCCUCGUCACUCUGCAGGGCAUCUCUGAGAGAAAUGCC [A43C A59U A121U], the self-cleavage was 0.33.

In the case of UACGUAGGUGGUCUUCCCCUGAUAGUGCUAAGGGGGCCCGGAAGUUUGGACUGGGCAGAGCUCAACACAGCGUGGCAAAGUGGCUGUGGCUAGACUGCCCCUCUGGAUUCCUCGUCACCCAGCAGGGCAUCUCUGAGAGAAAUGCC [U13C U39C U100C U119C], the self-cleavage is 0.

As to UACGUAGGUGGUUUUCCCCUGACAGUGCUAAGGGGGCCUGGAAGUUUGGACUGGGCAGAGCUCAACGCAGCGUGGCAAAGUGGCUGUGGCUAGACUGCCUCUCUGGAUUCCUCGCCACUCAGCAGGGCAUCUCUGAGAGAAAUGCC [U23C A67G U115C], the self-cleavage stood at 0.

With UGCGUAGGUGGUUUUCCCCUGAUAGUGCUAAGGGGGCCUGGGAGUUUGGACUGGGCAGAGCUCAACACAGCGUGGCAAAGUGGCAGUGGCUAGACUGCCUCUCUGGUUUCCUCGUCACUCAGCAGGGCAUCUCUGAGAGAAAUGCC [A2G A42G U85A A107U], the self-cleavage worked out at 0.21.

For UACGUAGGUGGUUUUCCCCUGAUAGUGCUAAGGGGGCCUGGAAGUUUGGACUGGGCAGAGCUCUACACAGCGUGGCAAAGUGGCUGUGGCUAGACUGCCUCUCUGGAUUCCUCGUCACUCAGCGGGGCAUCCCUGAGAGAAAUGCC [A64U A124G U132C], the self-cleavage turned out to be 0.18.

As to UACGUAGGCGGUCUUCCCCUGAUAGUGCUAAGGGGGCCUGGAAGUUUGGACUGGGCAGAGAUCAACACAGCGUGGCAAAGUGGCUGUGGCUAGACUGCCUCACUGGAUUCCUCGUCACUCAGCAGGGCAUCUCUGAGAGAAAAGCC [U9C U13C C61A U102A U143A], the self-cleavage is 0.14.

On to UACGUAGGUGGUUUCCCCCUGAUAGUGCUAAGGGGGCCUGGAAGUUAGGACUGGGCAGAGCUCGACACAGCGUGGCAAAGUGGCUGUGGCUAGACUGCCUCUCUGGAUUCCUCGUCACUCAGCAGGGCAUCUCUGAGAGAAAUGCC [U15C U47A A64G], for which the self-cleavage amounted to 0.09.
